# From the supplement of paper PMC5655136
# Read counts after selection give these values, which scatter widely.
# System: NB7
# Assay: fold depletion of shRNA, plasmid library share / infected cells without Dox share (9 days) (ratio); higher = more depleted after infection (more toxic, leaky expression from a Tet-inducible vector; NB7 is a neuroblastoma line without caspase-8)
# Conditions: shRNA pool: CD95L ORF + CD95L 3'UTR + Venus libraries
# 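Also: shRNA barcodes quantified by deep sequencing of PCR amplicons from cellular DNA, counts expressed as percent of each subpool, ratio averaged over two biological duplicates.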
row,Sequence,fold depletion of shRNA
1,TGCATTTTTGTGAAATGAAAA,1.3
2,TGCCACCCCTGAAGAAGAGAG,7.06
3,TGCCACCTACGGCAAGCTGAC,0.839
4,TGCCATGTGAAGAGGGAGAAG,1.08
5,TGCCCATCCTGGTCGAGCTGG,2.06
6,TGCCCCACTGGCAGCATCTTC,2.46
7,TGCCCCTGAGCCACAAGGTCT,0.971
8,TGCCCGAAGGCTACGTCCAGG,1.19
9,TGCCCGACAACCACTACCTGA,0.898
10,TGCCCGTGCCCTGGCCCACCC,0.512
11,TGCCCTGGCCCACCCTCGTGA,1.08
12,TGCCTCCACTACCGCTGCCAC,0.286
13,TGCCTGAGAGTATTTAGGCAG,1.24
14,TGCTACCTCAAGGGGGACTGT,4.1
15,TGCTGATCATTTATATGTCAA,0.658
16,TGCTGCCCGACAACCACTACC,1.41
17,TGCTGCTGCCCGACAACCACT,3.58
18,TGCTGGAGTTCGTGACCGCCG,1.79
19,TGCTTAAAAATCATTGATTGT,1.84
20,TGCTTCCTGACAATCAACTCT,13.4
21,TGCTTCGCCCGCTACCCCGAC,0.833
22,TGCTTTCTGGAGTGAAGTATA,0.914
23,TGGAAAAGGAAGACTAGAGGC,31
24,TGGAATGGGAAGACACCTATG,1.55

row,Sequence,fold depletion of shRNA
1,TGGACAGCAGTGCCAGCTCTC,2.87
2,TGGACCTTGAGACCACAGGGT,0.701
3,TGGACGGCGACGTAAACGGCC,0.811
4,TGGAGGAATATGACGGAAGAA,2.46
5,TGGAGGGGAAGATGATGAGCT,4.19
6,TGGAGTGAAGTATAAGAAGGG,1.58
7,TGGAGTTCGTGACCGCCGCCG,1.24
8,TGGCAGAACTCCGAGAGTCTA,3.58
9,TGGCAGCATCTTCACTTCTAA,16.2
10,TGGCCCACCCTCGTGACCACC,0.755
11,TGGCCCATTTAACAGGCAAGT,0.831
12,TGGCCTTGTGATCAATGAAAC,1.19
13,TGGGAAGACACCTATGGAATT,1
14,TGGGATTCTTTCCATTATGAT,1.63
15,TGGGCCCCTCCAGGCACAGTT,0.899
16,TGGGCCTTGCTACCTCAAGGG,1.96
17,TGGGCTACGGCCTGCAGTGCT,0.685
18,TGGGCTGCCATGTGAAGAGGG,1.02
19,TGGGCTGTACTTTGTATATTC,1.86
20,TGGGGACTCATTTCATTCCTA,1.44
21,TGGGGATGTTTCAGCTCTTCC,5.5
22,TGGGGCACAAGCTGGAGTACA,0.968
23,TGGGGGCAGTGTTCAATCTTA,1.45
24,TGGGTGGACAGCAGTGCCAGC,0.858

row,Sequence,fold depletion of shRNA
1,TGGGTTGCATTTGGTCAAGAT,0.597
2,TGGTCAAGATTTTGAATGCTT,7.53
3,TGGTCAATTTTGAGGAATCTC,1.43
4,TGGTCCTGCTGGAGTTCGTGA,1.3
5,TGGTGAACCGCATCGAGCTGA,1.38
6,TGGTGAGCAAGGGCGAGGAGC,1.19
7,TGGTGATGATGGAGGGGAAGA,1.22
8,TGGTGCCCATCCTGGTCGAGC,2.4
9,TGGTTCTGGTTGCCTTGGTAG,4.04
10,TGGTTGCCTTGGTAGGATTGG,5.68
11,TGGTTGTGACCTGAGGATTTA,0.541
12,TGTAATAAAAAGTATATGTTA,0.527
13,TGTACTTTGTATATTCCAAAG,0.528
14,TGTAGATATTGTGAAGTACAT,0.875
15,TGTAGCTCCTCAACTCACCTA,1.03
16,TGTAGGGGTGTGTGTGTGTGT,2.98
17,TGTATATTCCAAAGTATACTT,0.498
18,TGTATGACTAAAGAGAGAATG,0.989
19,TGTATTCAGTGAGGGTCTTCT,1.82
20,TGTATTTCCAGTGCAATTGTA,1.21
21,TGTCAACGTATCTGAGCTCTC,1.27
22,TGTCAGCTACTAATGATGTTT,2.43
23,TGTCCGGCGAGGGCGAGGGCG,2.1
24,TGTCCTGCTTTCTGGAGTGAA,0.39

# Same assay, conditions: shRNA pool: CD95 ORF + CD95 3'UTR + Venus libraries
row,Sequence,fold depletion of shRNA
1,TGCATTTTACTGGCTCAAAAC,1.21
2,TGCCAAGAAGGGAAGGAGTAC,1.92
3,TGCCAATTCCACTAATTGTTT,0.898
4,TGCCACCTACGGCAAGCTGAC,1.62
5,TGCCATAAGCCCTGTCCTCCA,3.9
6,TGCCCAAGTGACTGACATCAA,1.76
7,TGCCCATCCTGGTCGAGCTGG,2
8,TGCCCCTTGTGTTTGGAATTA,3.35
9,TGCCCGAAGGCTACGTCCAGG,0.735
10,TGCCCGACAACCACTACCTGA,0.576
11,TGCCCGTGCCCTGGCCCACCC,1.81
12,TGCCCTGCCAAGAAGGGAAGG,0.718
13,TGCCCTGGCCCACCCTCGTGA,0.987
14,TGCCCTTAGAAATTCTAGCCT,1.35
15,TGCCTCCAAGGATGTTTAAAA,1.22
16,TGCCTCTAAATTACCTCTGAT,1.45
17,TGCCTTGGTGCTCATCTTAAT,3.53
18,TGCGTGCCCTGCCAAGAAGGG,0.771
19,TGCTAAGTACCCAAATAGGAG,1.94
20,TGCTACAAATGGCAGCTTATA,1.63
21,TGCTAGATTATCGTCCAAAAG,1.92
22,TGCTCATCTTAATGGCCTAAT,2.06
23,TGCTCTCAGAGAAAGTAGCTT,1.3
24,TGCTCTTGTCATACCCCCAAG,4.41

row,Sequence,fold depletion of shRNA
1,TGCTGAAATATCAGTTACTGA,1.24
2,TGCTGCCCGACAACCACTACC,1.08
3,TGCTGCTGCCCGACAACCACT,3.33
4,TGCTGGAGTCATGACACTAAG,1.25
5,TGCTGGAGTTCGTGACCGCCG,0.954
6,TGCTGGGCATCTGGACCCTCC,0.595
7,TGCTTCGCCCGCTACCCCGAC,1.58
8,TGCTTCGTAATTGGCATCAAC,2
9,TGCTTGGTTTTTTACTGGGTA,1.56
10,TGGAAAGAAAGAAGCGTATGA,0.895
11,TGGAAATAAACTGCACCCGGA,1.26
12,TGGAAATATCACCAAAAAATA,1.34
13,TGGAATCATCAAGGAATGCAC,0.675
14,TGGAATTATAAAATATAGGTA,0.545
15,TGGACCCTCCTACCTCTGGTT,0.469
16,TGGACGGCGACGTAAACGGCC,0.545
17,TGGAGATACTAACTGCTCTCA,3.01
18,TGGAGTACAACTACAACAGCC,2.94
19,TGGAGTCATGACACTAAGTCA,3.53
20,TGGAGTTCGTGACCGCCGCCG,0.898
21,TGGCAATAAATTTATCTGATG,1.26
22,TGGCAGCTTATACATAGCAAT,7.58
23,TGGCATCAACTTCATGGAAAG,1.63
24,TGGCATCTAACATATGATTCT,1.37

row,Sequence,fold depletion of shRNA
1,TGGCCCACCCTCGTGACCACC,0.596
2,TGGCCTAATGCACCCCCAAAC,3.08
3,TGGCTCAAAACTACCTACTTC,4.56
4,TGGCTGTAAATACTGCTTGGT,1.54
5,TGGCTTAGAAGTGGAAATAAA,0.727
6,TGGCTTTGTCTTCTTCTTTTG,1.54
7,TGGGAAAACAAACTTCATCAA,3.1
8,TGGGCATCTGGACCCTCCTAC,1.02
9,TGGGCTACGGCCTGCAGTGCT,0.538
10,TGGGGATGAACCAGACTGCGT,1.91
11,TGGGGCACAAGCTGGAGTACA,0.912
12,TGGGTACATTTTATCATTTAT,0.786
13,TGGGTGAAGAGAAAGGAAGTA,1.07
14,TGGTCCTGCTGGAGTTCGTGA,1.09
15,TGGTGAACCGCATCGAGCTGA,1.12
16,TGGTGAGCAAGGGCGAGGAGC,1.21
17,TGGTGCCCATCCTGGTCGAGC,0.796
18,TGGTGCTCATCTTAATGGCCT,1.23
19,TGGTGTCAATGAAGCCAAAAT,2.01
20,TGGTGTCATATTATACAATAT,1.93
21,TGGTTTGGAGATACTAACTGC,2.42
22,TGGTTTTTTACTGGGTACATT,1.12
23,TGTAAAACCTGCTACAAATGG,4.07
24,TGTAAACCAAACTTTTTTTGT,0.914

row,Sequence,fold depletion of shRNA
1,TGTAAACTGTGAAGATAGTTA,1.3
2,TGTAAAGTATATGTATTTGAG,0.865
3,TGTAAATACTGCTTGGTTTTT,0.802
4,TGTAAATGTAAACTGTGAAGA,1.12
5,TGTAACTCTACTGTATGTGAA,0.776
6,TGTAATCAGTGTATGTTAGTA,0.853
7,TGTACTCTTGCAGAGAAAATT,0.81
8,TGTAGATTGTGTGATGAAGGA,2.47
9,TGTAGATTTTTAATATCTCAT,0.706
10,TGTAGTATGAATGTAATCAGT,2.51
11,TGTATGCAGAGGATGAAAGAT,2.17
12,TGTATGCATTTTACTGGCTCA,2.61
13,TGTATGTGAACACTGTGACCC,7.13
14,TGTATGTTAGTACAAATGTCT,0.9
15,TGTATTAAATGTGAATTTTAA,1.02
16,TGTATTTGAGTGCAGAATTTA,1.04
17,TGTCAATGAAGCCAAAATAGA,0.705
18,TGTCATACCCCCAAGTTTCTA,1.49
19,TGTCATATTATACAATATTTC,0.981
20,TGTCATGAACCCATGTTTGCA,3.69
21,TGTCCAAGACACAGCAGAACA,1.96
22,TGTCCCATGTAAAACCTGCTA,2.9
23,TGTCCGGCGAGGGCGAGGGCG,1.82
24,TGTCCTCCAGGTGAAAGGAAA,1.27
